Data from the supplement of paper PMC10369915.
The other results are listed elsewhere or left out. No stated cut-off is given here; in the data, active = 3.2 or more and inactive = the rest. The signal is at background level for most entries.

target: SHP2 C-SH2 domain E139D; test: enrichment score (SH2-bound / input frequency) (ratio); bacterial display of known human phosphotyrosine sites (pTyr-Var adds point mutants) read by sequencing; higher = stronger binding; tyrosines were phosphorylated by kinases first; conditions: peptide library: pTyr-Var
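Further: displayed peptides selected on beads carrying the immobilized SH2 domain, with library peptides lacking any tyrosine serving as negative controls.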

Enrichment score, inactive:
MSSHHYDFKKF [ZNF445_Y428_YF] 0.533
FDFKKYGKGLR [ZNF445_Y433_YF] 1.86
SGEKPYKCSVC [ZNF543_Y283_E287V] 0.703
GKAFIYASHIV [ZNF573_Y229] 1.6
AKAFIYASHIV [ZNF573_Y229_G224A] 1.02
REGKIYEFNQV [ZNF665_Y162_H157R_YF] 0.887
HEGKIYEFNQV [ZNF665_Y162_YF] 0.67
VHKEGYNKLNQ [ZNF676_Y98] 0.854
GKTFTYRSVFF [ZNF80_Y200] 0.968
YNDSAYNQQLI [ZPLD1_Y198_T197A] 0.798
FNDSTYNQQLI [ZPLD1_Y198_YF] 0.698
YSSLGYPLPEG [ZSWIM4_Y87_P89L] 0.948
FSSLGYPLPEG [ZSWIM4_Y87_P89L_YF] 0.727
QLLIKYPPEEV [ZZZ3_Y670] 1.31
QLLIEYPPEEV [ZZZ3_Y670_K669E] 1.03
AEEEIYGEFEA [Src_opt_1995] 0.661
GGEAIYAAPFA [Abl_opt_1995] 0.867
ADEDIYGVLPA [LYNtide_2014] 0.599

target: SHP2 C-SH2 domain wild-type; test: as above; conditions: peptide library: pTyr-Var

Enrichment score, inactive:
MSSHHYDFKKF [ZNF445_Y428_YF] 0.801
FDFKKYGKGLR [ZNF445_Y433_YF] 1.34
SGEKPYKCSVC [ZNF543_Y283_E287V] 0.789
GKAFIYASHIV [ZNF573_Y229] 1.72
AKAFIYASHIV [ZNF573_Y229_G224A] 1.18
REGKIYEFNQV [ZNF665_Y162_H157R_YF] 0.847
HEGKIYEFNQV [ZNF665_Y162_YF] 0.475
VHKEGYNKLNQ [ZNF676_Y98] 0.97
GKTFTYRSVFF [ZNF80_Y200] 0.976
YNDSAYNQQLI [ZPLD1_Y198_T197A] 0.578
FNDSTYNQQLI [ZPLD1_Y198_YF] 0.588
YSSLGYPLPEG [ZSWIM4_Y87_P89L] 2.89
FSSLGYPLPEG [ZSWIM4_Y87_P89L_YF] 0.64
QLLIKYPPEEV [ZZZ3_Y670] 0.874
QLLIEYPPEEV [ZZZ3_Y670_K669E] 0.951
AEEEIYGEFEA [Src_opt_1995] 1.19
GGEAIYAAPFA [Abl_opt_1995] 0.717
ADEDIYGVLPA [LYNtide_2014] 0.879

target: SHP2 N-SH2 domain L43F; test: as above; conditions: peptide library: pTyr-Var

Enrichment score, inactive:
MSSHHYDFKKF [ZNF445_Y428_YF] 0.473
FDFKKYGKGLR [ZNF445_Y433_YF] 1.11
SGEKPYKCSVC [ZNF543_Y283_E287V] 0.837
GKAFIYASHIV [ZNF573_Y229] 1.73
AKAFIYASHIV [ZNF573_Y229_G224A] 1.15
REGKIYEFNQV [ZNF665_Y162_H157R_YF] 0.986
HEGKIYEFNQV [ZNF665_Y162_YF] 0.572
VHKEGYNKLNQ [ZNF676_Y98] 1
GKTFTYRSVFF [ZNF80_Y200] 0.974
YNDSAYNQQLI [ZPLD1_Y198_T197A] 0.729
FNDSTYNQQLI [ZPLD1_Y198_YF] 0.682
YSSLGYPLPEG [ZSWIM4_Y87_P89L] 0.933
FSSLGYPLPEG [ZSWIM4_Y87_P89L_YF] 0.544
QLLIKYPPEEV [ZZZ3_Y670] 1.03
QLLIEYPPEEV [ZZZ3_Y670_K669E] 0.818
AEEEIYGEFEA [Src_opt_1995] 0.852
GGEAIYAAPFA [Abl_opt_1995] 0.687
ADEDIYGVLPA [LYNtide_2014] 0.564

target: SHP2 N-SH2 domain T42A; test: as above; conditions: peptide library: pTyr-Var

Enrichment score, inactive:
MSSHHYDFKKF [ZNF445_Y428_YF] 0.365
FDFKKYGKGLR [ZNF445_Y433_YF] 1.13
SGEKPYKCSVC [ZNF543_Y283_E287V] 0.655
GKAFIYASHIV [ZNF573_Y229] 1.18
AKAFIYASHIV [ZNF573_Y229_G224A] 1.02
REGKIYEFNQV [ZNF665_Y162_H157R_YF] 0.836
HEGKIYEFNQV [ZNF665_Y162_YF] 0.472
VHKEGYNKLNQ [ZNF676_Y98] 0.739
GKTFTYRSVFF [ZNF80_Y200] 1.02
YNDSAYNQQLI [ZPLD1_Y198_T197A] 0.59
FNDSTYNQQLI [ZPLD1_Y198_YF] 0.682
YSSLGYPLPEG [ZSWIM4_Y87_P89L] 1.6
FSSLGYPLPEG [ZSWIM4_Y87_P89L_YF] 0.626
QLLIKYPPEEV [ZZZ3_Y670] 1.11
QLLIEYPPEEV [ZZZ3_Y670_K669E] 0.789
AEEEIYGEFEA [Src_opt_1995] 0.89
GGEAIYAAPFA [Abl_opt_1995] 0.718
ADEDIYGVLPA [LYNtide_2014] 0.547

target: SHP2 N-SH2 domain T52S; test: as above; conditions: peptide library: pTyr-Var

Enrichment score, inactive:
MSSHHYDFKKF [ZNF445_Y428_YF] 0.495
FDFKKYGKGLR [ZNF445_Y433_YF] 1.39
SGEKPYKCSVC [ZNF543_Y283_E287V] 0.731
GKAFIYASHIV [ZNF573_Y229] 1.15
AKAFIYASHIV [ZNF573_Y229_G224A] 0.946
REGKIYEFNQV [ZNF665_Y162_H157R_YF] 0.976
HEGKIYEFNQV [ZNF665_Y162_YF] 0.476
VHKEGYNKLNQ [ZNF676_Y98] 0.765
GKTFTYRSVFF [ZNF80_Y200] 1.22
YNDSAYNQQLI [ZPLD1_Y198_T197A] 0.89
FNDSTYNQQLI [ZPLD1_Y198_YF] 0.687
YSSLGYPLPEG [ZSWIM4_Y87_P89L] 0.845
FSSLGYPLPEG [ZSWIM4_Y87_P89L_YF] 0.64
QLLIKYPPEEV [ZZZ3_Y670] 1.35
QLLIEYPPEEV [ZZZ3_Y670_K669E] 0.885
AEEEIYGEFEA [Src_opt_1995] 0.714
GGEAIYAAPFA [Abl_opt_1995] 0.639
ADEDIYGVLPA [LYNtide_2014] 0.531

target: SHP2 N-SH2 domain wild-type; test: as above; conditions: peptide library: pTyr-Var

Enrichment score, inactive:
MSSHHYDFKKF [ZNF445_Y428_YF] 0.555
FDFKKYGKGLR [ZNF445_Y433_YF] 1.63
SGEKPYKCSVC [ZNF543_Y283_E287V] 0.787
GKAFIYASHIV [ZNF573_Y229] 1.47
AKAFIYASHIV [ZNF573_Y229_G224A] 1.04
REGKIYEFNQV [ZNF665_Y162_H157R_YF] 1.22
HEGKIYEFNQV [ZNF665_Y162_YF] 0.99
VHKEGYNKLNQ [ZNF676_Y98] 0.845
GKTFTYRSVFF [ZNF80_Y200] 0.905
YNDSAYNQQLI [ZPLD1_Y198_T197A] 0.599
FNDSTYNQQLI [ZPLD1_Y198_YF] 0.894
YSSLGYPLPEG [ZSWIM4_Y87_P89L] 0.834
FSSLGYPLPEG [ZSWIM4_Y87_P89L_YF] 0.487
QLLIKYPPEEV [ZZZ3_Y670] 0.801
QLLIEYPPEEV [ZZZ3_Y670_K669E] 0.908
AEEEIYGEFEA [Src_opt_1995] 1.15
GGEAIYAAPFA [Abl_opt_1995] 0.715
ADEDIYGVLPA [LYNtide_2014] 0.788
